Experimental findings from US7423058B2, “Inhibitors of hepatitis C virus NS3 protease” (Schering Corporation, priority 2004, dated 2008) are described below.

The target of this experiment is Recombinant heterodimeric HCV NS3/NS4A protease (strain 1a) (Hepatitis C virus genotype 1a, UniProt P27958). Nature of the experiment: Spectrophotometric assay for HCV protease inhibitory activity (chromogenic ester substrates). It is filed as biochemical. The conditions noted are these: Table 1: Ketones; read-out: Ki* Range. The source says: The present invention relates to novel HCV protease inhibitors. This utility can be manifested in their ability to inhibit the HCV NS2/NS4a serine protease.
Assay for HCV Protease Inhibitory Activity:
Spectrophotometric Assay: Spectrophotometric assay for the HCV serine protease can be performed on the inventive compounds by following the procedure described by R. Zhang et al, Analytical Biochemistry, 270 (1999) 268-275, the disclosure of which is incorporated herein by reference. The assay based on the proteolysis of chromogenic ester substrates is suitable for the continuous monitoring of HCV NS3 protease activity. The substrates are derived from the P side of the NS5A-NS5B junction sequence (Ac-DTEDVVX(Nva), where X=A or P) whose C-terminal carboxyl groups are esterified with one of four different chromophoric alcohols (3- or 4-nitrophenol, 7-hydroxy-4-methyl-coumarin, or 4-phenylazophenol). Illustrated below are the synthesis, characterization and application of these novel spectrophotometric ester substrates to high throughput screening and detailed kinetic evaluation of HCV NS3 protease inhibitors. Materials and Methods:
Materials: Chemical reagents for assay related buffers are obtained from Sigma Chemical Company (St. Louis, Mo.). Reagents for peptide synthesis were from Aldrich Chemicals, Novabiochem (San Diego, Calif.), Applied Biosystems (Foster City, Calif.) and Perseptive Biosystems (Framingham, Mass.). Peptides are synthesized manually or on an automated ABI model 431A synthesizer (from Applied Biosystems). UVNIS Spectrometer model LAMBDA 12 was from Perkin Elmer (Norwalk, Conn.) and 96-well UV plates were obtained from Corning (Corning, N.Y.). The prewarming block can be from USA Scientific (Ocala, Fla.) and the 96-well plate vortexer is from Labline Instruments (Melrose Park, Ill.). A Spectramax Plus microtiter plate reader with monochrometer is obtained from Molecular Devices (Sunnyvale, Calif.).
Protein concentrations are determined by the Biorad dye method using recombinant HCV protease standards previously quantified by amino acid analysis. Prior to assay initiation, the enzyme storage buffer (50 mM sodium phosphate pH 8.0, 300 mM NaCl, 10% glycerol, 0.05% lauryl maltoside and 10 mM DTT) is exchanged for the assay buffer (25 mM MOPS pH 6.5, 300 mM NaCl, 10% glycerol, 0.05% lauryl maltoside, 5 μM EDTA and 5 μM DTT) utilizing a Biorad Bio-Spin P-6 prepacked column. Substrate Synthesis and Purification: The synthesis of the substrates is done as reported by R. Zhang et al, (ibid.) and is initiated by anchoring Fmoc-Nva-OH to 2-chlorotrityl chloride resin using a standard protocol (K. Barlos et al, Int. J. Pept. Protein Res., 37 (1991), 513-520). The peptides are subsequently assembled, using Fmoc chemistry, either manually or on an automatic ABI model 431 peptide synthesizer. […] The combined filtrate and DCM wash is evaporated azeotropically (or repeatedly extracted by aqueous Na2CO3 solution) to remove the acid used in cleavage. The DCM phase is dried over Na2SO4 and evaporated.
The ester substrates are assembled using standard acid-alcohol coupling procedures (K. Holmber et al, Acta Chem. Scand., B33 (1979) 410-412). Peptide fragments are dissolved in anhydrous pyridine (30-60 mg/ml) to which 10 molar equivalents of chromophore and a catalytic amount (0.1 eq.) of para-toluenesulfonic acid (pTSA) were added. Dicyclohexylcarbodiimide (DCC, 3 eq.) is added to initiate the coupling reactions. Product formation is monitored by HPLC and can be found to be complete following 12-72 hour reaction at room temperature. Pyridine solvent is evaporated under vacuum and further removed by azeotropic evaporation with toluene.
The term Ki denotes a dissociation constant, usually derived from enzyme kinetics or from competition with a known ligand. For `CC(C)C(=O)[C@@H](NC(=O)N[C@H](C(=O)N1C[C@H]2[C@@H]([C@H]1C(=O)NC(CC1CC1)C(=O)C(N)=O)C2(C)C)C(C)(C)C)C1CCCCC1` (stereo partly shown) [compound 4047], the Ki was less than 75 nM.
Consider `CC(C)(C)[C@H](NC(=O)N[C@H](C(=O)C1CC1)C1CCC1)C(=O)N1C[C@H]2[C@@H]([C@H]1C(=O)NC(CC1CC1)C(=O)C(N)=O)C2(C)C` (stereo partly shown) [compound 4048], for which the Ki is less than 75 nM.
Turning to `CC(C)(C)[C@H](NC(=O)N[C@H](C(=O)c1ccccc1)C1CCCCC1)C(=O)N1C[C@H]2[C@@H]([C@H]1C(=O)NC(CC1CCC1)C(=O)C(N)=O)C2(C)C` (stereo partly shown) [compound 4051], the Ki was less than 75 nM.
The value for `CC(C)[C@@H](CC(=O)c1ccccc1)NC(=O)N[C@H](C(=O)N1C[C@H]2[C@@H]([C@H]1C(=O)NC(CC1CC1)C(=O)C(N)=O)C2(C)C)C(C)(C)C` (stereo partly shown) [compound 4052] was less than 75 nM; that for `C#CCCC(NC(=O)[C@@H]1[C@@H]2[C@H](CN1C(=O)[C@@H](NC(=O)N[C@H](C(=O)C1(C)CC1)C1CCCCC1)C1CCCCC1)C2(C)C)C(=O)C(=O)NCC=C` (stereo partly shown) [compound 4053] was less than 75 nM; that for `CC(C)C(=O)[C@@H](NC(=O)N[C@H](C(=O)N1C[C@H]2[C@@H]([C@H]1C(=O)NC(CC1CC1)C(=O)C(N)=O)C2(C)C)C(C)(C)C)C(C)C` (stereo partly shown) [compound 4054] was less than 75 nM.
As for `CC(C)(C)[C@H](NC(=O)N[C@H](C(=O)c1ccccc1)C1CCCC1)C(=O)N1C[C@H]2[C@@H]([C@H]1C(=O)NC(CC1CC1)C(=O)C(N)=O)C2(C)C` (stereo partly shown) [compound 4055], the Ki was less than 75 nM.
The value for `CC(C)(C)[C@H](NC(=O)N[C@H](C(=O)N1C[C@H]2[C@@H]([C@H]1C(=O)NC(CC1CC1)C(=O)C(N)=O)C2(C)C)C(C)(C)C)C(=O)C1CC1` (stereo partly shown) [compound 4057] was less than 75 nM; that for `CC(C)C(=O)[C@@H](NC(=O)N[C@H](C(=O)N1C[C@H]2[C@@H]([C@H]1C(=O)NC(CC1CC1)C(=O)C(N)=O)C2(C)C)C(C)(C)C)C1CCC1` (stereo partly shown) [compound 4058] was less than 75 nM.
The value for `CC(C)[C@H](NC(=O)N[C@H](C(=O)N1C[C@H]2[C@@H]([C@H]1C(=O)NC(CC1CC1)C(=O)C(N)=O)C2(C)C)C(C)(C)C)C(=O)c1ccc[nH]1` (stereo partly shown) [compound 4059] was less than 75 nM.
As for `CC(C)(C)[C@H](NC(=O)N[C@H](C(=O)C1CC1)C1CCCC1)C(=O)N1C[C@H]2[C@@H]([C@H]1C(=O)NC(CC1CC1)C(=O)C(N)=O)C2(C)C` (stereo partly shown) [compound 4060], the figure is less than 75 nM; as for `CC(C)(C)C(=O)CC1(NC(=O)N[C@H](C(=O)N2C[C@H]3[C@@H]([C@H]2C(=O)NC(CC2CCC2)C(=O)C(N)=O)C3(C)C)C(C)(C)C)CCCCC1` (stereo partly shown) [compound 4061], less than 75 nM.
`C#CCCC(NC(=O)[C@@H]1[C@@H]2[C@H](CN1C(=O)[C@@H](NC(=O)N[C@H](C(=O)c1ccccc1)C(C)C)C(C)(C)C)C2(C)C)C(=O)C(=O)NCC=C` (stereo partly shown) [compound 4062]: the Ki is less than 75 nM.
As for `CC(C)[C@H](NC(=O)N[C@H](C(=O)N1C[C@H]2[C@@H]([C@H]1C(=O)NC(CC1CC1)C(=O)C(N)=O)C2(C)C)C(C)(C)C)C(=O)C1CCCCC1` (stereo partly shown) [compound 4063], the figure is less than 75 nM; as for `CC(C)[C@H](NC(=O)N[C@H](C(=O)N1C[C@H]2[C@@H]([C@H]1C(=O)NC(CC1CC1)C(=O)C(N)=O)C2(C)C)C(C)(C)C)C(=O)c1ccc(F)cc1` (stereo partly shown) [compound 4064], less than 75 nM.
As for `CC(C)(C)[C@H](NC(=O)N[C@H](C(=O)c1ccccn1)C1CCCCC1)C(=O)N1C[C@H]2[C@@H]([C@H]1C(=O)NC(CC1CC1)C(=O)C(N)=O)C2(C)C` (stereo partly shown) [compound 4065], the figure is less than 75 nM.
As for `CC1([C@H](NC(=O)N[C@H](C(=O)C2CC2)C2CCCCC2)C(=O)N2C[C@H]3[C@@H]([C@H]2C(=O)NC(CC2CC2)C(=O)C(N)=O)C3(C)C)CCCCC1` (stereo partly shown) [compound 4066], the Ki was less than 75 nM.
The value for `C#CCCC(NC(=O)[C@@H]1[C@@H]2[C@H](CN1C(=O)[C@@H](NC(=O)NC1(CC(=O)C(C)(C)C)CCCCC1)C(C)(C)C)C2(C)C)C(=O)C(=O)NCC=C` (stereo partly shown) [compound 4067] was less than 75 nM; that for `CC(C)[C@H](NC(=O)N[C@H](C(=O)N1C[C@H]2[C@@H]([C@H]1C(=O)NC(CC1CC1)C(=O)C(N)=O)C2(C)C)C(C)(C)C)C(=O)CCc1ccccc1` (stereo partly shown) [compound 4068] was less than 75 nM.
As for `CC(C)[C@H](NC(=O)N[C@H](C(=O)N1C[C@H]2[C@@H]([C@H]1C(=O)NC(CC1CC1)C(=O)C(N)=O)C2(C)C)C(C)(C)C)C(=O)c1ccco1` (stereo partly shown) [compound 4069], the figure is less than 75 nM.
As for `CC(=O)[C@@H](NC(=O)N[C@H](C(=O)N1C[C@H]2[C@@H]([C@H]1C(=O)NC(CC1CC1)C(=O)C(N)=O)C2(C)C)C(C)(C)C)C(C)C` (stereo partly shown) [compound 4070], the figure is less than 75 nM; as for `CSc1ccc(C(=O)[C@@H](NC(=O)N[C@H](C(=O)N2C[C@H]3[C@@H]([C@H]2C(=O)NC(CC2CC2)C(=O)C(N)=O)C3(C)C)C(C)(C)C)C(C)C)cc1` (stereo partly shown) [compound 4071], less than 75 nM; as for `COc1cccc(C(=O)[C@@H](NC(=O)N[C@H](C(=O)N2C[C@H]3[C@@H]([C@H]2C(=O)NC(CC2CC2)C(=O)C(N)=O)C3(C)C)C(C)(C)C)C(C)C)n1` (stereo partly shown) [compound 4072], less than 75 nM.
Consider `CC(C)(C)[C@H](NC(=O)N[C@H](C(=O)c1nccs1)C1CCCCC1)C(=O)N1C[C@H]2[C@@H]([C@H]1C(=O)NC(CC1CC1)C(=O)C(N)=O)C2(C)C` (stereo partly shown) [compound 4073], for which the inhibition constant Ki was less than 75 nM.
As for `CC(C)[C@H](NC(=O)N[C@H](C(=O)N1C[C@H]2[C@@H]([C@H]1C(=O)NC(CC1CCC1)C(=O)C(N)=O)C2(C)C)C(C)(C)C)C(=O)C1CC1` (stereo partly shown) [compound 4074], the Ki was less than 75 nM.
As for `CC(C)[C@H](NC(=O)N[C@H](C(=O)N1C[C@H]2[C@@H]([C@H]1C(=O)NC(CC1CC1)C(=O)C(N)=O)C2(C)C)C(C)(C)C)C(=O)c1ccc(Cl)cc1` (stereo partly shown) [compound 4075], the Ki was less than 75 nM.
The value for `CCC(CC)[C@H](NC(=O)N[C@H](C(=O)N1C[C@H]2[C@@H]([C@H]1C(=O)NC(CC1CC1)C(=O)C(N)=O)C2(C)C)C(C)(C)C)C(=O)c1ccccc1` (stereo partly shown) [compound 4076] was less than 75 nM; that for `CC(C)[C@H](NC(=O)N[C@H](C(=O)N1C[C@H]2[C@@H]([C@H]1C(=O)NC(CC1CCC1)C(=O)C(N)=O)C2(C)C)C(C)(C)C)C(=O)c1nccs1` (stereo partly shown) [compound 4077] was less than 75 nM.
As for `CC(C)[C@H](NC(=O)N[C@H](C(=O)N1C[C@H]2[C@@H]([C@H]1C(=O)NC(CC1CC1)C(=O)C(N)=O)C2(C)C)C(C)(C)C)C(=O)c1cccnc1` (stereo partly shown) [compound 4078], the Ki is less than 75 nM.
The value for `CC(C)[C@@H](CC(=O)Cc1ccccc1)NC(=O)N[C@H](C(=O)N1C[C@H]2[C@@H]([C@H]1C(=O)NC(CC1CC1)C(=O)C(N)=O)C2(C)C)C(C)(C)C` (stereo partly shown) [compound 4079] was less than 75 nM; that for `C=CCNC(=O)C(=O)C(CCC)NC(=O)[C@@H]1[C@@H]2[C@H](CN1C(=O)[C@@H](NC(=O)NC1(CC(=O)C(C)(C)C)CCCCC1)C(C)(C)C)C2(C)C` (stereo partly shown) [compound 4080] was less than 75 nM.
Turning to `CC(=O)[C@@H](NC(=O)N[C@H](C(=O)N1C[C@H]2[C@@H]([C@H]1C(=O)NC(CC1CC1)C(=O)C(N)=O)C2(C)C)C(C)(C)C)C1CCCCC1` (stereo partly shown) [compound 4081], the Ki is less than 75 nM.
As for `CC(C)[C@H](NC(=O)N[C@H](C(=O)N1C[C@H]2[C@@H]([C@H]1C(=O)NC(CC1CCC1)C(=O)C(N)=O)C2(C)C)C(C)(C)C)C(=O)c1ccccc1` (stereo partly shown) [compound 4082], the Ki is less than 75 nM.
As for `C=CCNC(=O)C(=O)C(CCC)NC(=O)[C@@H]1[C@@H]2[C@H](CN1C(=O)[C@@H](NC(=O)N[C@H](C(=O)c1ccccc1OC)C(C)C)C(C)(C)C)C2(C)C` (stereo partly shown) [compound 4083], the figure is less than 75 nM.
